Test results: ChEMBL document CHEMBL4888484, “Replenishing the malaria drug discovery pipeline: Screening and hit evaluation of the MMV Hit Generation Library 1 (HGL1) against asexual blood stage Plasmodium falciparum ,using a nano luciferase reporter read-out” (2022)
In all, about 150,000 compounds went through this assay and about 540 (0.36%) showed an effect of 50% or more. The list shows a part of the results.

tested on: Plasmodium falciparum; assay: Primary screen in NF54 nanoGlo assay, in single point, at 2uM, 72h; a lower Z score goes with more inhibition; format: functional, Erythrocyte; settings: timepoint 72 hour

Q: How did the “% Inhibition” value turn out when `Cc1ccc(S(=O)(=O)Nn2nnc(-c3ccccc3)c2C)cc1` was run?
A: -14%

Q: What about the Z score of the same compound?
A: 1.86

Q: Which results are given for `O=S(=O)(c1ccc(F)cc1)N1CCN(c2ncnc3c2cnn3-c2ccc(F)cc2)CC1`?
A: % Inhibition: -7%; Z score: 0.63

Q: For `O=C(CCc1n[nH]c(Cc2ccc3c(c2)OCO3)nc1=O)NCCOc1ccccc1`, which “% Inhibition” value is on record?
A: -10%

Q: What about the Z score of the same compound?
A: 1.7

Q: How did the “% Inhibition” value turn out when `O=C(Cn1cncn1)Nc1cnn(C[C@H]2COc3ccccc3O2)c1` was run?
A: -4%

Q: What about the Z score of the same compound?
A: 0.53

Q: What does the source list for `NS(=O)(=O)c1ccc(Cn2ccnc2[C@H]2CCOC2)cc1`?
A: % Inhibition: -8%; Z score: 1.08

Q: Which results are given for `O=C1NC2(CCCC2)C(=O)N1CC(=O)N1CCCc2ccccc21`?
A: % Inhibition: -8%; Z score: 1.37

Q: Which results are given for `O=C(Cn1nccn1)N1CCC(c2nc3ccccc3o2)CC1`?
A: % Inhibition: -12%; Z score: 2.06

Q: `Cn1cnn(CC(=O)N2CCN(S(=O)(=O)c3ccc4ccccc4c3)CC2)c1=O` was tested. Which “% Inhibition” value did it give?
A: 1%

Q: And the Z score?
A: -0.08

Q: For `CC[C@H](C)NS(=O)(=O)Cc1ccc(Br)cc1`, which “% Inhibition” value is on record?
A: -7%

Q: What about the Z score of the same compound?
A: 1.23

Q: Which “% Inhibition” value does the source give for `O=C(Nc1ccccc1)N1CCCCC[C@H]1c1ccccc1Cl` here?
A: 1%

Q: What about the Z score of the same compound?
A: -0.15

Q: What does the source list for `CN1C(=O)CC[C@H]1C(=O)Nc1cc(Cl)cc2cn[nH]c12`?
A: % Inhibition: -3%; Z score: 0.41

Q: `CCCN(CC(=O)NC)Cc1nc(CC)cc(N(CCC)CC(=O)NC)n1` was tested. Which “% Inhibition” value did it give?
A: 3%

Q: And the Z score?
A: -0.6

Q: Which results are given for `Cc1cc(N2Cc3ncccc3C2=O)ccc1N1CCCC1=O`?
A: % Inhibition: -10%; Z score: 1.55

Q: What does the source list for `CS(=O)(=O)N1CCC(c2nnc3sc(-c4cccc5cccnc45)nn23)CC1`?
A: % Inhibition: -8%; Z score: 1.2

Q: Which results are given for `O=C1C[C@H](c2ccc3c(c2)OCO3)c2cnn(Cc3ccc4c(c3)OCO4)c2N1`?
A: % Inhibition: -14%; Z score: 1.78

Q: For `CC(C)CCn1c2c(c(=O)[nH]c1=O)[C@H](C(=O)Nc1ccc(OC(F)(F)F)cc1)CC(=O)N2`, which “% Inhibition” value is on record?
A: 8%

Q: What about the Z score of the same compound?
A: -0.99

Q: Which results are given for `C[C@H](NC(=O)c1cccn1C1CC1)c1cnn(C)c1`?
A: % Inhibition: -7%; Z score: 1.24

Q: Which “% Inhibition” value does the source give for `CCOC(=O)[C@@]1(C(C)C)CCN(C(=O)c2csnc2C)C1` here?
A: -8%

Q: What about the Z score of the same compound?
A: 0.82

Q: For `C[C@@H](C(=O)Nc1ccc(F)cc1)N1CCC(NS(=O)(=O)c2cccs2)CC1`, which “% Inhibition” value is on record?
A: 32%

Q: What about the Z score of the same compound?
A: -3.04

Q: Which results are given for `Cc1ccccc1C(=O)N1C(C(=O)NC(C)c2ccccc2)COC12CCN(C(=O)CC(C)(C)C)CC2` (centres undefined)?
A: % Inhibition: -5%; Z score: 0.47

Q: How did the “% Inhibition” value turn out when `O=C(NCCc1ccc2c(c1)OCO2)[C@@H]1C[C@@H](NCC2CCCCC2)CN1Cc1cccc(Cl)c1` was run?
A: -13%

Q: And the Z score?
A: 1.64

Q: Which results are given for `CN(C)S(=O)(=O)CCNC(=O)Nc1ccc(Cl)cc1C(F)(F)F`?
A: % Inhibition: -8%; Z score: 1.16
